Experimental data published in patent US5824771A, “Cyclic CRF agonists” (The Salk Institute for Biological Studies, priority 1997, dated 1998).
Part of at least one peptide drawing is inferred or uncertain, most often the ends. Some compounds share one wording; it may come from a single statement.

Tests used:
[1] = tested on: ACTH and β-END-LI secretion; assay: Secretion of ACTH and β-END-LI on administration of the peptide (in vivo testing)
Description: (§1) The cyclic CRF agonists are examined for their effects on the secretion of ACTH and β-endorphin in vitro and also in vivo. […] In vivo testing is carried out using the general procedure set forth in C. Rivier et al., Science, 218, 377 (1982).

[2] = tested on: rat anterior pituitary cells; assay: In vitro stimulation of ACTH and β-endorphin secretion by cultured rat pituitary cells, potency compared with oCRF (Standard) or r/hCRF; assay type: cell-based; conditions: compared with the Standard or with a named analog
Description: as §1

Structure (SMILES): CCCC[C@H](NC(=O)[C@H](CCC(=O)O)NC(=O)[C@H](CC(C)C)NC(=O)[C@@H](NC(=O)[C@H](CCC(=O)O)NC(=O)[C@H](CCCNC(=N)N)NC(=O)[C@H](CC(C)C)NC(=O)[C@H](CC(C)C)NC(=O)[C@H](Cc1c[nH]cn1)NC(=O)[C@@H](Cc1ccccc1)NC(=O)[C@@H](NC(=O)[C@H](CC(C)C)NC(=O)[C@H](CC(=O)O)NC(=O)[C@H](CC(C)C)NC(=O)C(NC=O)NC(C)=O)[C@@H](C)O)C(C)C)C(=O)N[C@@H](C)C(=O)N[C@@H](CCCNC(=N)N)C(=O)N[C@@H](C)C(=O)N[C@@H](CCC(=O)O)C(=O)N[C@@H](CCC(N)=O)C(=O)N[C@@H](CC(C)C)C(=O)N[C@@H](C)C(=O)N[C@@H](CCC(N)=O)C(=O)N[C@H]1CCC(=O)NCCCC[C@@H](C(=O)N[C@@H](CC(N)=O)C(=O)N[C@@H](CCCNC(=N)N)C(=O)N[C@@H](CCCCN)C(=O)N[C@@H](CC(C)C)C(=O)N[C@@H](CCCC)C(=O)N[C@@H](CCC(=O)O)C(=O)N[C@H](C(=O)N[C@H](C(N)=O)[C@@H](C)CC)[C@@H](C)CC)NC(=O)[C@H](Cc2c[nH]cn2)NC(=O)[C@H](C)NC1=O (stereo partly drawn) [Example 19 C, (cyclo 30-33)[Ac-D/L-Agl(For)^7, D-Phe^12, Nle^21,38, Glu^30, Lys^33]-r/hCRF(7-41)]
- stimulation of secretion of ACTH and β-END-LI on administration of the peptide, in words [1]: stimulates the secretion of ACTH and β-END-LI

Structure (SMILES): CCCC[C@H](NC(=O)[C@H](CCC(=O)O)NC(=O)[C@H](CC(C)C)NC(=O)[C@@H](NC(=O)[C@H](CCC(=O)O)NC(=O)[C@H](CCCNC(=N)N)NC(=O)[C@H](CC(C)C)NC(=O)[C@H](CC(C)C)NC(=O)[C@H](Cc1c[nH]cn1)NC(=O)[C@@H](Cc1ccccc1)NC(=O)[C@@H](NC(=O)[C@H](CC(C)C)NC(=O)[C@H](CC(=O)O)NC(=O)[C@H](CC(C)C)NC(=O)C(NC(C)=O)NC(C)=O)[C@@H](C)O)C(C)C)C(=O)N[C@@H](C)C(=O)N[C@@H](CCCNC(=N)N)C(=O)N[C@@H](C)C(=O)N[C@@H](CCC(=O)O)C(=O)N[C@@H](CCC(N)=O)C(=O)N[C@@H](CC(C)C)C(=O)N[C@@H](C)C(=O)N[C@@H](CCC(N)=O)C(=O)N[C@H]1CCC(=O)NCCCC[C@@H](C(=O)N[C@@H](CC(N)=O)C(=O)N[C@@H](CCCNC(=N)N)C(=O)N[C@@H](CCCCN)C(=O)N[C@@H](CC(C)C)C(=O)N[C@@H](CCCC)C(=O)N[C@@H](CCC(=O)O)C(=O)N[C@H](C(=O)N[C@H](C(N)=O)[C@@H](C)CC)[C@@H](C)CC)NC(=O)[C@H](Cc2c[nH]cn2)NC(=O)[C@H](C)NC1=O [Example 19 F, (cyclo 30-33)[Ac-Agl(Ac)^7, D-Phe^12, Nle^21,38, Clu^30, Lys^33]-r/hCRF(7-41)]
- in vitro biopotency, comparison in words [2]: less potent than the Standard
- stimulation of secretion of ACTH and β-END-LI on administration of the peptide, in words [1]: stimulates the secretion of ACTH and β-END-LI
